Experimental data taken from publication PMC10691697, “A small molecule exerts selective antiviral activity by targeting the human cytomegalovirus nuclear egress complex” (PLOS Pathogens, 2023).

Experiments:
[1] = HTRF assay without protein targets (interference); conditions: for Fluorescence at 620 nm (GK1) / HTRF ratio for GK1: no protein, singlicate; for HTRF ratio for GK1: A665nm/A620nm * 10000
[2] = tested on: pp28 expression; set-up: method as in PMID 28100301; conditions: 1 μM; cited from earlier work
[3] = tested on: HCMV protein expression (IE1, IE2, UL57, UL50, UL53, pp28); experiment: Western blot analysis of protein expression in infected cells; conditions: 10 μM, MOI 1, 72 hpi, based on dilution series
[4] = tested on: MCMV M50-M53; type: binding
[5] = tested on: HCMV expressing GFP (53-F BADGFP)

## C=CC(=O)Nc1cccc(Oc2cc(Cl)nc3[nH]ccc23)c1 [GK1]
[1]
  effect on HTRF signal in the absence of protein (interference): little or no effect
[1]; 0.5 microM
  Fluorescence at 620 nm (GK1): 7173
[1]; 0.71 microM
  Fluorescence at 620 nm (GK1): 7007
[1]; 1.01 microM
  Fluorescence at 620 nm (GK1): 6787
[1]; 1.43 microM
  HTRF ratio for GK1: 8220
  Fluorescence at 620 nm (GK1): 6741
[1]; 2.04 microM
  HTRF ratio for GK1: 7808
  Fluorescence at 620 nm (GK1): 6607
[1]; 2.91 microM
  HTRF ratio for GK1: 8020
  Fluorescence at 620 nm (GK1): 6586
[1]; 4.15 microM
  HTRF ratio for GK1: 7605
[1]; 5.91 microM
  HTRF ratio for GK1: 8051
[1]; 8.42 microM
  HTRF ratio for GK1: 7714
[1]; 12 microM
  HTRF ratio for GK1: 7648
[1]; 17.1 microM
  HTRF ratio for GK1: 7606
[1]; 24.2 microM
  HTRF ratio for GK1: 7973
[1]; 34.7 microM
  HTRF ratio for GK1: 7675
[1]; 49.5 microM
  HTRF ratio for GK1: 7520
[2]
  inhibition of pp28 expression in a screen: did not score as positive
[3]
  effect on expression of IE1, IE2, UL57, UL50, UL53, pp28: < 2 fold
[4]
  inhibition in HTRF assay for interactions of mouse cytomegalovirus NEC subunits: did not show inhibition
[5]; 10 μM
  reduction of plaque formation: ≥ 5 fold
[5]; HFF, automated plaque reduction assay, 6 dpi
  ED50, HCMV plaque formation: 0.83 µM
[5]; anti-HCMV ED50 (APRA) and parallel WST-1 CC50
  CC50/ED50: 27
